# Measured values reported in the RNAGym collection of RNA variant scans (doi:10.1093/nar/gkz1192).
# The source gives no read counts; variants with many changes may rest on few reads.
# B1: CPEB3 Ribozyme (parent)
# chain: UAACAGGGGGCCACAGCAGAAGCGUUCACGUCGCAGCCCCUGUCAGAUUCUGGUGAAUCUGCGAAUUCUGCUGUAUAUCUC
# Variants of: B1
# Test: self-cleavage, relative activity (ratio to wild type); higher = more cleavage; in vitro, sequencing
# Outline: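 After error-prone PCR and barcoding, CPEB3 ribozyme mutant libraries were transcribed with T7 RNA polymerase at 37°C for 5 hours, then given 15 min with DNase I before an EDTA stop, and they cleaved during both steps. Reverse transcription with template switching preceded Illumina sequencing. Relative activity divides a variant's cleaved/total read fraction by the unmutated ribozyme's. At least 5 reads were required per variant, and three batches were averaged.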
row,Variant,self-cleavage
1,A15G C32U U72C,0.19
2,A15G U41C U67A,0.3
3,A15G C32U A57U,0.06
4,A15G U26C C71U,0.23
5,A15G U26C A64G U67A,0.09
6,A15G U26C U41C U49A,0.15
7,A15G U43A U74C,1.09
8,A15G U26A U41A A64G U74A,0.14
9,A15G U41A A57G,0.17
10,A15G C38G U60A,0.35
11,A15G G63C U67C,0.2
12,A15G U25G G46U U78A,0.48
13,A15G U31C U54C A77U,0.31
14,A15G G36U A45G U67A,0.12
15,A15G G19A U51A,0.33
16,A15G U26C A28G U69A A75G A77G,0.05
17,A15G C32U U67C,0.24
18,A15G U25A A28G C39U C71U,0.08
19,A15G U41C U54A,1.07
20,A15G U41C U54C,0.6
21,A15G U25C A56U U72A,0.17
22,A15G G19U U31A U58C U67A,0.14
23,A15G G19A C39U A45U U74A,0.6
24,A15G U25A A64U,0.18

row,Variant,self-cleavage
1,A15G C40U U67C U78C,0.32
2,A15G G30U U31C G33A U54C A57G,0.05
3,A15G U41C U43C G73A,0.51
4,A15G G30U U69G,0.05
5,A15G C44A A45G G73U,0.56
6,A15G C40U U41A U51A,0.34
7,A15G U31A G33A U78C,0.15
8,A15G U43C U48C,0.33
9,A15G U31C A56G,0.17
10,A15G U43A G73U,1.23
11,A15G G33A U49C A56U,0.12
12,A15G U25A A28G C68A U74C,0.18
13,A15G C32U A35G U51A A64G U66C U78C,0.09
14,A15G U31C U48A A65G U66C U67C,0
15,A15G U25C U31A A64G,0.13
16,A15G U26C U60C,0.33
17,A15G U25C A64G A65G U80A,0.4
18,A15G C44U U51C U76C,0.64
19,A15G U26C U41C A64G,0.33
20,A15G U43A A45G A47U,0.48
21,A15G U26C A28U A47G U48C U58G U67C,0.18
22,A15G U26G U51C A57G U67C U78C,0.04
23,A15G U26C U31C,0.18
24,A15G U25G C29U U43C U51C A56U,0.06

row,Variant,self-cleavage
1,A15G U41A G61U U67C U80A,0.13
2,A15G U31C U67C,0.14
3,A15G U31C U67A,0.21
4,A15G U41A G52U A64G A65G U66C,0.05
5,A15G U25C A56U,0.47
6,A15G U41A A45G U49A U54C U78C,0.06
7,A15G C38U U41C,0.92
8,A15G C38A U78C,0.12
9,A15G G24U U49A U66C U80C,0.12
10,A15G G46A A47U U78C,0.3
11,A15G U26C U41C U48C U54C A64G U78A,0.15
12,A15G U25A A28G A57U U58C U67A,0.06
13,A15G U26C U49C U67C,0.23
14,A15G U25C C38U A56G U74A,0.14
15,A15G U25A U26C,0.13
16,A15G U43A U48C C59U A64G U72A,0.13
17,A15G G42A U49A U80C,0.08
18,A15G U25C A47G U69C,0.26
19,A15G U43C U48A U60A U67C,0.1
20,A15G U31C C32G,0.26
21,A15G G46U A57U,0.09
22,A15G G19U U31A U43C U58C U67A,0.16
23,A15G G16A A64U U80C,0.46
24,A15G C34U U54A A57U U76C,0.08

row,Variant,self-cleavage
1,A15G U26A A45G G55U A57G U72A U74C,0.07
2,A15G G36C U60C U69A,0.04
3,A15G U31C A35G U80G,0.47
4,A15G U41A U80C,0.28
5,A15G U31C U43A U48A C50A,0.06
6,A15G U26C C62G U80A,0.19
7,A15G U25G U26A U80A,0.44
8,A15G U26A A45U U60C,0.18
9,A15G U26C U72A,0.2
10,A15G U25C C34G A45U C50G,0.17
11,A15G G22A G30A U48A U72A,0.13
12,A15G G16C U25C A47U C68G U72C,0
13,A15G U31C U41C U66C,0.35
14,A15G U41A A56U,0.07
15,A15G U41C U48C A65G C71U,0.16
16,A15G U41C U54A G70U U72A,0.17
17,A15G U25C C71A A77C U80A,0.06
18,A15G U26A G63U U69C,0.29
19,A15G G30C U43C A57G,0.16
20,A15G U31A U43C U51C A57C,0.09
21,A15G G46U A64G U74A,0.16
22,A15G U31A A57G A65G U66C U72C U80C,1.18
23,A15G U26C U41C U43A U49A A57G U74C,0.12
24,A15G U26A A56G,0.65

row,Variant,self-cleavage
1,A15G G46C A47G,0.12
2,A15G U31A U41A A47G A56G U69C,0.12
3,A15G U31C A35G U69A U72C U80C,0.12
4,A15G C39A A47G U66C A77U,0.08
5,A15G U26C U66C U76C,0.19
6,A15G U41C A45C U78C,0.14
7,A15G G24C A45G U69C,0.19
8,A15G C39U A57G U60C U76A,0.18
9,A15G C40U U51A G61C,0.1
10,A15G U31C A45G,0.26
11,A15G U26A U48C U51C U60C A75U,0.14
12,A15G C34U U51A U69C U80C,0.1
13,A15G G53U U72C,1.25
14,A15G U25C U26C U31A U66C,0.25
15,A15G U41A U54C,0.32
16,A15G U41C U54A C81A,1.03
17,A15G U25C U48C U69A,0.17
18,A15G C39U A75C,0.61
19,A15G U26C A28G,0.06
20,A15G C38U U69C,0.19
21,A15G U26C C68A U69C,0.13
22,A15G U26C U54C U72C,0.51
23,A15G G33U C62U U78C,0.05
24,A15G U25C G30U U31C U72C,0.09

row,Variant,self-cleavage
1,A15G U25C U41C A65U,0.19
2,A15G U43A U60A A65G,0.09
3,A15G U31C U41C U72C,0.7
4,A15G U26A U48C A64G,0.32
5,A15G G24C U60C U80C,0.16
6,A15G C39A U76A,0.21
7,A15G G33A A45G C50U U66C U80C,0.11
8,A15G C39G A56G U60A,0.11
9,A15G C32U U66C,0.19
10,A15G U25C C40G U51A,0.06
11,A15G U43C C62U U69C U72C,0.06
12,A15G C62G A65G U66C A75G C81A,0.25
13,A15G G16A A21G A28C U67C U72C,0.26
14,A15G U25C A56G A64G,0.11
15,A15G G52U U54A,1.13
16,A15G G53A A56G,0.39
17,A15G C39A G73A A77G,0.22
18,A15G U26C U54C U76C,0.39
19,A15G G33A A47G U54C A57G C68A,0.11
20,A15G U25A A28G U51A A56U,0.1
21,A15G G19A U25C U41C,0.21
22,A15G G46A U48C A64G,0.1
23,A15G U43A U54C,0.38
24,A15G U31C C79A,0.53

row,Variant,self-cleavage
1,A15G U25C A28G G55A,0.1
2,A15G C38U U49C U60C U72A U80A,0.06
3,A15G C39A U66C,0.18
4,A15G U26A U41C A47G A75G,0.36
5,A15G G16A C71U,0.18
6,A15G U31C A35G U72C,0.58
7,A15G G30A U58C,0.11
8,A15G U26C A45U U67C G73A,0.34
9,A15G G30A A57G,0.12
10,A15G U26C U49C,0.22
11,A15G U41A U49C A56U U72C,0.21
12,A15G U26A A45G G52U U60C,1.02
13,A15G C38G U41C,0.15
14,A15G U25C A45G U67C,0.16
15,A15G G16C A65G U69C,0.17
16,A15G G19A G30A U60C,0.2
17,A15G U31C G33A A56U U66C,0.09
18,A15G U25A U41A U43C U51C U72C,0.35
19,A15G G16U A18G,0.47
20,A15G U25C C29G U54C,0.29
21,A15G U26A U54C A57U,0.19
22,A15G U26C U41C U60C A65G,0.02
23,A15G U31C A77G,0.2
